These results are taken from the supplement of paper PMC12340641.

In all, about 1,000 compounds were measured (“relative growth recovery (pomalidomide 10 uM = 100%, DMSO = 0%)”: median about -1.6, highest 2% from about 21 on). Some of the results follow.

The subject of this test is HEK293FT dCK*-IKZF1. As to the kind of experiment: relative growth recovery (pomalidomide 10 uM = 100%, DMSO = 0%); higher = more growth rescue (IKZF1 fusion degradation). The settings on record: compound concentration: 5 uM; AraC concentration: 0.3 uM; overnight pretreatment + 4 days AraC. The method, then: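 Growth recovery screen of the molecular-glue-like (Specs) library. HEK293FT cells expressing a dCK*-IKZF1 fusion (primary) or dCK* alone (counter) were pretreated overnight with compound at 5 uM, then given 0.3 uM AraC for 4 days. Hoechst nuclei were counted by imaging. Primary: normalised to pomalidomide (100%) and DMSO (0%), mean of 2 replicates. Counter: normalised to no-AraC (100%) and AraC+DMSO (0%), single replicate.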
For the compound `Cc1cc(C)nc(NS(=O)(=O)c2ccc(NC(=O)CSc3nc4c(cc3C#N)CCC4)cc2)n1`, the relative growth recovery was -6.17%.

Turning to `COC(=O)C(c1cccc(Nc2ncc(C)s2)n1)C1CCN(C(=O)C2(NC(=O)OC(C)(C)C)CCCCC2)CC1` (configuration not stated), the relative growth recovery is -4.12%.

On to `CNC(=O)C1(c2cccc(Nc3ncc(C)s3)n2)CN(S(=O)(=O)c2cn(C)cn2)CCO1` (configuration not stated), for which the relative growth recovery worked out at 0.555%.

Regarding `Cc1ccc(Nc2nc(-c3sc(NC(=O)c4ccccc4)nc3C)cs2)nc1`, the relative growth recovery worked out at 111%.

With `NCC(=O)N1CCC(c2cccc(Nc3ncc(Cl)s3)n2)CC1`, the relative growth recovery was -19.4%.

In the case of `COc1cccc(C(=O)Nc2ccc(S(=O)(=O)Nc3nc(C)cc(C)n3)cc2)c1`, the relative growth recovery was -1.65%.

With `Cn1cc(/C=C/C(=O)N2CCC(c3cc4ccccc4c(Nc4nccs4)n3)CC2)cn1`, the relative growth recovery was -18.7%.

On to `CCC(CC)C(=O)Nc1ccc(S(=O)(=O)Nc2ncccn2)cc1`, for which the relative growth recovery was -0.205%.

Regarding `CCCCc1cnc(Nc2cccc(C3CCN(C(=O)C(C)(C)NC(=O)OC(C)(C)C)CC3)n2)s1`, the relative growth recovery was -15.7%.

For `NC(=O)CN1CCCC1c1csc(Nc2ccccn2)n1` (configuration not stated), the relative growth recovery is -2.02%.

Take `Cc1cnc(Nc2cccc(C3CN(C(=O)C4CC4c4ccc(Cl)cc4)CCO3)n2)s1` (configuration not stated): the relative growth recovery is 28.4%.

For `COc1ccccc1N1C(=O)c2ccc(Oc3ccc(N)cc3)cc2C1=O`, the relative growth recovery was 2.65%.

With `COc1cc(NS(=O)(=O)c2ccc(Nc3nc(-c4cccs4)cs3)cc2)nc(OC)n1`, the relative growth recovery worked out at 0.1%.

Regarding `O=C(Nc1ccc(S(=O)(=O)Nc2ncccn2)cc1)c1ccc([N+](=O)[O-])cc1`, the relative growth recovery is -0.33%.

For `COc1ccc(-c2csc(Nc3ccc(S(=O)(=O)Nc4nc(C)cc(C)n4)cc3)n2)cc1`, the relative growth recovery was -3.44%.

In the case of `Cc1ccn(CCC(=O)N2CCC(c3cccc(Nc4ncc(C)s4)n3)CC2)n1`, the relative growth recovery was -3.61%.

Turning to `N#CCN1CCCC(c2cccc(Nc3nc(C(=O)N4CCNC(=O)C4)cs3)n2)C1` (configuration not stated), the relative growth recovery was 5.07%.

As for `Cc1ccc(CCC(=O)Nc2ccc(S(=O)(=O)Nc3ncccn3)cc2)cc1`, the relative growth recovery turned out to be 0.96%.

For the compound `O=S(=O)(Nc1ccc(S(=O)(=O)Nc2ncccn2)cc1)c1ccccc1`, the relative growth recovery stood at 2.94%.

In the case of `Cc1nc(Nc2cccc(C3CCCN3C(=O)CCc3nc4ccccc4[nH]3)n2)sc1C` (configuration not stated), the relative growth recovery is -2.88%.

As for `Nc1ccc(Oc2ccc3c(c2)C(=O)N(c2ccccc2)C3=O)cc1`, the relative growth recovery was 2.54%.

For `O=C(/C=C/c1ccccc1)N1CCCC1c1csc(Nc2ccccn2)n1` (configuration not stated), the relative growth recovery is -2.08%.

On to `CN(C)C(=O)CN1CCC(c2csc(Nc3ccccn3)n2)CC1`, for which the relative growth recovery turned out to be 2.02%.

`Cc1ccnc(NS(=O)(=O)c2ccc(NC(=O)CSc3nc(C)cc(=O)[nH]3)cc2)n1`: the relative growth recovery was -2.31%.

For `CC(C)(C)C(=O)Nc1ccc(S(=O)(=O)Nc2ccccn2)cc1`, the relative growth recovery is -3.33%.

With `CC1CCN(C(=O)CN2CCC(c3cccc(Nc4nccs4)n3)CC2)CC1`, the relative growth recovery is -1.4%.

Take `COc1cc(NS(=O)(=O)c2ccc(NC(=O)c3ccc(-c4ccccc4)cc3)cc2)nc(OC)n1`: the relative growth recovery is -2.57%.
